Data taken from article PMC4336329 (PLoS ONE, 2015).
About 2,200 (0.71%) of roughly 310,000 compounds showed an effect of 50% or more. The effect is printed as a negative number. The list shows a part of the results.

Molecular target: human ether-à-go-go-related gene (hERG) potassium channel (human, UniProt Q12809)
Experiment: primary screen, population patch clamp on CHO cells stably expressing hERG

Chain of human ether-à-go-go-related gene (hERG) potassium channel (Q12809 whole entry, looked up): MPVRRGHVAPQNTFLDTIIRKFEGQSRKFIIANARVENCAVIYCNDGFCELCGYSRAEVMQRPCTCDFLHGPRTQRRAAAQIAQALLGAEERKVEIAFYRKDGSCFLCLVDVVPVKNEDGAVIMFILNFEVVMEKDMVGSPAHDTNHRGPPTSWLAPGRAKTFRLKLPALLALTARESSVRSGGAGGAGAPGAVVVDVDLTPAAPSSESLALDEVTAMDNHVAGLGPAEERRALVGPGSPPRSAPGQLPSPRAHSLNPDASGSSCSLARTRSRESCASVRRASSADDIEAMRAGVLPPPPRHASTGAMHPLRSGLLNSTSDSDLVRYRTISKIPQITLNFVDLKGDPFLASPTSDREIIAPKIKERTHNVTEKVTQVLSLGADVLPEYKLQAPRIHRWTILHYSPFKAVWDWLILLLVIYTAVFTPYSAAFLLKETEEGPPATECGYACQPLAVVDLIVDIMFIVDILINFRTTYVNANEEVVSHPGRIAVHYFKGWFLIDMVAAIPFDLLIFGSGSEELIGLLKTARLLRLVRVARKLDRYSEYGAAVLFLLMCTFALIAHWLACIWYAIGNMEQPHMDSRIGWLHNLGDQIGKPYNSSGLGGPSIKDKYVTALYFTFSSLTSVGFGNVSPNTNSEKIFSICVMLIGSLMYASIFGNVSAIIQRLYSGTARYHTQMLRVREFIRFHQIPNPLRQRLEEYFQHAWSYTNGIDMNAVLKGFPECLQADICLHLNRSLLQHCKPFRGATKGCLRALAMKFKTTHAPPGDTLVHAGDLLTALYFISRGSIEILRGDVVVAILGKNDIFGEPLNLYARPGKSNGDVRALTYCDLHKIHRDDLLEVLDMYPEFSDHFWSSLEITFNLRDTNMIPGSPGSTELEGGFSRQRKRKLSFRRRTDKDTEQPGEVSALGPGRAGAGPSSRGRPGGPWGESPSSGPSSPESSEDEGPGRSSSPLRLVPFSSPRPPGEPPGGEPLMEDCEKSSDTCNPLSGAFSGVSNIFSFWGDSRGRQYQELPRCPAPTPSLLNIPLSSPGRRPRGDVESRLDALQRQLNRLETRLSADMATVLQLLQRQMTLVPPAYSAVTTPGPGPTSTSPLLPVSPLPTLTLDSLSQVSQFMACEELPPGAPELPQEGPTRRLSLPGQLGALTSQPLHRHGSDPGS

Compared with `Cc1ccc(CS/C(Nc2ccccc2C)=C(\C#N)C(N)=O)c(C)c1`, `CCN(CC)CCOC(=O)c1ccc(NC(=O)c2cccc(C)c2[N+](=O)[O-])cc1` is lower in “hERG current change (%, negative = inhibition) at 1uM” value: 12.1% for the first, 4.93% for the second.

Going from `CC1=C(c2ccccc2)[N+](=O)C2(CCCC2)N1[O-]` to `O=C(NCCc1ccccc1)c1cccc(N2CCCC2=O)c1`, the “hERG current change (%, negative = inhibition) at 1uM” value rises from 15.2% to 16.4%.

Compared with `CC(C)CNC(=O)CC(c1ccccc1)c1ccccc1`, `COc1ccc([N+](=O)[O-])cc1NC(=O)CC(c1ccccc1)c1ccccc1` is lower in “hERG current change (%, negative = inhibition) at 1uM” value: 6.28% for the first, 2.48% for the second.

Compared with `Cc1cc(C)c(NC(=O)CN2CCOCCOCCOCCOCC2)c(C)c1`, `Cc1cc(C)c(NC(=O)CCCN2CCOCC2)c(C)c1` is higher in “hERG current change (%, negative = inhibition) at 1uM” value: 0.747% for the first, 16% for the second.

Going from `Cc1ccc(-c2cc(-c3ccccc3)nc(N(C)N)n2)cc1` to `Cc1ccc(-n2cc(CN(C)Cc3ncc[nH]3)c(-c3cccc(C)c3)n2)cc1`, the “hERG current change (%, negative = inhibition) at 1uM” value falls from 15.5% to 13.4%.

Compared with `CC(C)(C)NC(=S)NCc1ccncc1`, `Cc1ccc(S(=O)(=O)N(CC(=O)NCc2ccncc2)Cc2ccc(F)cc2)cc1` is lower in “hERG current change (%, negative = inhibition) at 1uM” value: 1.31% for the first, -75% for the second.

Compared with `COc1ccccc1N(C(=O)c1snc(C(N)=O)c1N)C(C(=O)NC1CCCC1)c1ccco1` (stereo not shown), `COc1ccccc1CNC(=O)C1CCN(S(=O)(=O)c2cccc3cccnc23)CC1` is higher in “hERG current change (%, negative = inhibition) at 1uM” value: -3.74% for the first, 0.296% for the second.

Compared with `Cc1ccc2nc(SCc3nnc(-c4cccs4)o3)[nH]c2c1`, `COc1ccc2nc(C)cc(SCC(=O)N/N=C/c3ccccc3)c2c1` is higher in “hERG current change (%, negative = inhibition) at 1uM” value: 11.2% for the first, 12.9% for the second.

Going from `CSc1nnc2c(n1)OC=Nc1ccccc1-2` to `Cc1nc(NCc2ccco2)c2oc3ccccc3c2n1`, the “hERG current change (%, negative = inhibition) at 1uM” value falls from 1.95% to -14.3%.

Going from `COc1cc(C(=O)C(=O)c2ccc(O)c(OC)c2)ccc1O` to `COC(=O)c1cc(Cl)c(NC(=O)c2ccc(F)cc2)cc1OC`, the “hERG current change (%, negative = inhibition) at 1uM” value falls from 13.8% to -2.93%.

Going from `CCOC(=O)N1CCN(S(=O)(=O)c2cc3c(cc2C)NC(=O)CO3)CC1` to `Cn1c(N)c(S(=O)(=O)N2CCCC2)c(=O)n(C)c1=O`, the “hERG current change (%, negative = inhibition) at 1uM” value rises from -11.6% to 21.3%.

Compared with `O=C(Oc1ccc2ccc(OC(=O)N3CCOCC3)cc2c1)N1CCOCC1`, `O=C(c1ccc(=O)oc1)N1CCOCC1` is higher in “hERG current change (%, negative = inhibition) at 1uM” value: 1.33% for the first, 6.35% for the second.

Compared with `CC(=O)N[C@@H](Cc1c[nH]c2ccccc12)C(=O)NCc1ccccc1`, `O=C(Nc1cccc(NC(=O)c2ccccc2F)c1)c1ccccc1` is lower in “hERG current change (%, negative = inhibition) at 1uM” value: 13.9% for the first, 6.76% for the second.

Compared with `Brc1ccc(C=Nc2ccc3c(c2)OCCOCCOCCO3)s1`, `O=C(COc1ccc(S(=O)(=O)N2CCCC2)cc1)Nc1ccc2c(c1)OCCO2` is higher in “hERG current change (%, negative = inhibition) at 1uM” value: -58.3% for the first, 12.7% for the second.

Going from `COC(=O)C1=C(C)n2cnnc2NC1c1ccc(Cl)cc1` (stereo not shown) to `O=C(COc1ccc(Cl)cc1)NC1CC1`, the “hERG current change (%, negative = inhibition) at 1uM” value falls from 11.7% to 3.73%.

Going from `CSc1ccccc1C(=O)C1CCCN(C(=O)c2cc(C(C)C)no2)C1` (stereo not shown) to `O=C(c1ccco1)N1CCN(C2CC(=O)N(c3ccccc3)C2=O)CC1` (stereo not shown), the “hERG current change (%, negative = inhibition) at 1uM” value rises from -1.05% to 10%.

Going from `CCOC(=O)C1=NNC2(c3ccc(Cl)cc3)C(=O)N(c3ccc(C)cc3)C(=O)C12` (stereo not shown) to `COc1ccc(-c2cn(CCC(=O)NCc3ccc(C)cc3)c(-c3ccncc3)n2)cc1`, the “hERG current change (%, negative = inhibition) at 1uM” value falls from 10.8% to -3.49%.

Going from `COc1ccc(OCC(=O)N2CCN(c3nnc(-c4ccc(C)cc4)c4ccccc34)CC2)cc1` to `COc1ccc(-c2nn(-c3ccccc3)cc2/C=C/C(=O)OCC(=O)Nc2ccc(C#N)cc2)cc1`, the “hERG current change (%, negative = inhibition) at 1uM” value rises from 1.41% to 14.9%.

First: O=C(OCCCCN1C(=O)c2ccccc2C1=O)c1n[nH]c2ccccc12
Second: O=C(NCc1nc2ccccc2[nH]1)C1=C[C@H](c2ccc(C(F)(F)F)cc2)C[C@H](OCCCCO)O1
The “hERG current change (%, negative = inhibition) at 1uM” value of the first is higher: 21.9% for the first, 4.62% for the second.

Going from `CCCCc1c(O)nc(SCC(=O)O)[nH]c1=O` to `CCCCC(=O)N/N=C/c1c(O)n(CCC2=CCCCC2)c(=O)[nH]c1=O`, the “hERG current change (%, negative = inhibition) at 1uM” value falls from 26.5% to 11.7%.

First: O=C(CN(Cc1ccco1)S(=O)(=O)c1ccccc1)N/N=C/c1ccccc1C(=O)O
Second: O=C(NCCS(=O)(=O)NCc1ccco1)c1ccccc1
The “hERG current change (%, negative = inhibition) at 1uM” value of the first is higher: 11.3% for the first, 10% for the second.

Compared with `COc1ccc(NC(=O)CSc2ccc(-c3ccccn3)nn2)cc1OC`, `COc1ccc(C(=O)NCC2OCCc3ccccc32)cc1OC` (stereo not shown) is higher in “hERG current change (%, negative = inhibition) at 1uM” value: -1.9% for the first, 1.03% for the second.

Compared with `CCOC(=O)C1=NOC(CNC(=O)C2=NOC(CNC(=O)c3c(-c4ccccc4Cl)noc3C)C2)C1` (stereo not shown), `CCOC(=O)c1c(C)[nH]c(C)c1S(=O)(=O)NCC(=O)Nc1ccccn1` is higher in “hERG current change (%, negative = inhibition) at 1uM” value: -1.55% for the first, 17.5% for the second.

First: CCC(C)(C)NC(=O)C(c1ccc(OC)cc1)N(C(=O)CCC(=O)Nc1cc(C)on1)c1ccc(OC)c(OC)c1 (stereo not shown)
Second: COc1cccc(C(=O)Nc2cc(C)on2)c1OC
The “hERG current change (%, negative = inhibition) at 1uM” value of the first is lower: 10.2% for the first, 14.3% for the second.

Going from `CCCCCCCSc1nnc(N)s1` to `Cc1nnc(SCC(=O)c2ccc(Br)cc2)s1`, the “hERG current change (%, negative = inhibition) at 1uM” value rises from 10.4% to 10.7%.

First: O=C(c1cnsn1)N1CCN(c2ccccn2)CC1
Second: O=C1CCC(C(=O)N2CCN(c3ccc(F)cc3)CC2)CN1CC1CCCCC1 (stereo not shown)
The “hERG current change (%, negative = inhibition) at 1uM” value of the first is higher: 15% for the first, -13.9% for the second.

Going from `CCN1CCc2c(sc(NC(=O)C3CCCCC3)c2C(=O)OC)C1.Cl` to `CCOC(=O)C1CCCN(c2c(NCCCN3CCCC(C)C3)c(=O)c2=O)C1` (stereo not shown), the “hERG current change (%, negative = inhibition) at 1uM” value falls from 12.1% to 11.3%.

Going from `COc1ccc(CCNC(=O)Cc2ccsc2)cc1` to `CCOc1ccc(CCNC(=O)CCNC(=O)c2ccc(Br)cc2)cc1OCC`, the “hERG current change (%, negative = inhibition) at 1uM” value falls from 14% to 8.36%.

First: COc1ccc(/C=C/C(=O)Nc2ccc3nc4n(c(=O)c3c2)CCCC4)cc1OC
Second: COc1ccc(NS(=O)(=O)c2cc(NC(=O)c3cnc(C)cn3)ccc2N2CCCC2)cc1
The “hERG current change (%, negative = inhibition) at 1uM” value of the first is lower: 11.4% for the first, 12.3% for the second.

Going from `COc1ccc2cc(C3c4cc(OC)c(OC)cc4CCN3C(=O)c3ccco3)c(=O)[nH]c2c1` (stereo not shown) to `COc1cccc(C2C(C(=O)c3ccc(C)o3)=C(O)C(=O)N2CCN2CCOCC2)c1OC` (stereo not shown), the “hERG current change (%, negative = inhibition) at 1uM” value rises from 5.36% to 9.54%.

Going from `CCc1cccc(OCC(=O)N(C)CC(=O)Nc2cccc(F)c2)c1` to `C=CCC(=O)N1CCC(n2nccc2NC(=O)CCOc2ccccc2)CC1`, the “hERG current change (%, negative = inhibition) at 1uM” value rises from -15.7% to 13.2%.

Compared with `CCn1c(CCc2ccccc2)n[nH]c1=S`, `CCCc1[nH]nc2c1C(c1ccccc1OCC)C(C#N)=C(N)O2` (stereo not shown) is lower in “hERG current change (%, negative = inhibition) at 1uM” value: 9.3% for the first, 8.52% for the second.

Compared with `C/C(=N\N=C1/NC(=O)C(C)S1)c1ccc([N+](=O)[O-])cc1` (stereo not shown), `Cc1nn(Cc2ccc([N+](=O)[O-])cc2)c(=O)n1-c1ccccc1Cl` is higher in “hERG current change (%, negative = inhibition) at 1uM” value: 0.621% for the first, 3.9% for the second.

Going from `COc1ccc(-c2noc(CN3CCOCC3)n2)cc1OC` to `COCc1cc(CN2CCN(CCCc3ccccc3)C(CCO)C2)ccc1OC` (stereo not shown), the “hERG current change (%, negative = inhibition) at 1uM” value falls from -2.66% to -18.2%.

First: CCOC(=O)c1sc(NC(=O)CCN2CCOCC2)c(C(=O)OCC)c1C
Second: CCC(=O)Nc1sc2c(c1C#N)CCC2
The “hERG current change (%, negative = inhibition) at 1uM” value of the first is lower: -6.23% for the first, 9.7% for the second.

Compared with `Cc1ccc(S(=O)(=O)N2CCN(C3CCN(Cc4ccccc4)CC3)CC2)cc1.O=C(O)C(=O)O`, `Cc1c(C(=O)N2CCc3ccccc3C2)oc2ccc(S(=O)(=O)N3CC(C)CC(C)C3)cc12` (stereo not shown) is higher in “hERG current change (%, negative = inhibition) at 1uM” value: -75.3% for the first, 0.934% for the second.

Compared with `Cc1ccc(-c2csc(C3=C(O)CN(NC(=O)c4ccco4)C3=N)n2)cc1`, `Cc1ccc(C(=O)CC2(O)C(=O)N(Cc3ccc4c(c3)OCO4)c3ccccc32)cc1` (stereo not shown) is lower in “hERG current change (%, negative = inhibition) at 1uM” value: 11.2% for the first, 2.41% for the second.

Compared with `CC(C)(C)c1cc[n+](C2=C([O-])c3ccccc3C(=O)/C2=N\S(=O)(=O)c2cccs2)cc1`, `O=c1c2c(-c3cccs3)csc2ncn1/N=C/c1ccc(OC(F)F)cc1` is higher in “hERG current change (%, negative = inhibition) at 1uM” value: -4.41% for the first, 7.53% for the second.

First: O=C1C2C3c4ccccc4C(c4ccccc43)C2C(=O)N1/N=C/c1cccc(O)c1 (stereo not shown)
Second: COc1ccc(/C=C/C(=O)c2ccccc2O)cc1
The “hERG current change (%, negative = inhibition) at 1uM” value of the first is higher: 10% for the first, 5.77% for the second.

Compared with `CCCOP(=O)(OCCC)C(Nc1ccc(C(C)C)cc1)c1ccc([N+](=O)[O-])cc1` (stereo not shown), `COc1ccc(/C=C(/NC(=O)c2cccc([N+](=O)[O-])c2)C(=O)O)cc1` is higher in “hERG current change (%, negative = inhibition) at 1uM” value: -1.78% for the first, 9.26% for the second.

First: CCc1c(C)sc(NC(=O)C2CC2c2ccccc2)c1C(N)=O (stereo not shown)
Second: Cc1cc(C=O)c(C)n1-c1cc(C(=O)O)cc(C(=O)O)c1
The “hERG current change (%, negative = inhibition) at 1uM” value of the first is higher: 12.4% for the first, 11.9% for the second.

Going from `Cc1cc(C)nc(-n2cc(C(=O)c3cc(F)ccc3O)cn2)n1` to `CCN(CC)c1ccc(C(=O)NC(=S)N2CCN(Cc3ccc4c(c3)OCO4)CC2)cc1`, the “hERG current change (%, negative = inhibition) at 1uM” value falls from 12.8% to 10.1%.

Compared with `O=[N+]([O-])c1cccc(/C=N/n2cnnc2)c1`, `CCCCc1ccc(C(=O)O)nc1` is higher in “hERG current change (%, negative = inhibition) at 1uM” value: 8.79% for the first, 9.24% for the second.

First: O=C(Cc1ccc(Cl)cc1)NC1CCCCCC1
Second: COc1ccc(-c2sc3cc4c(cc3c2C#CC2(N)CCCCC2)OCO4)cc1
The “hERG current change (%, negative = inhibition) at 1uM” value of the first is lower: 14.5% for the first, 17.6% for the second.
